The test system of one experiment is HSkMC. Description: cytotoxicity call (relative viability < 0.9). The note with it: 10 µM.
The next experiment has as its system HepG2. Description: cytotoxicity call (relative viability < 0.9). The following applies: 10 µM.
The next experiment relates to S. aureus RN4220. Description: growth inhibition call (relative growth <= 0.2). The following applies: 50 µM.

The other results are listed elsewhere or left out.

Take `Nc1ccn(C2OC(CO)C(O)C2O)c(=O)n1` (stereo not given): the cytotoxicity call with HSkMC and in the experiment with HepG2 was “inactive” each time. Moreover, the growth inhibition call in the experiment on S. aureus RN4220 was “inactive”.

Take `C[C@@H]1CN([C@@H](C)CO)C(=O)Cc2cc(NC(=O)Nc3cccc4ccccc34)ccc2O[C@@H]1CN(C)Cc1ccc2c(c1)OCO2`: in the experiment on HSkMC, the cytotoxicity call is “inactive”. The cytotoxicity call in the experiment with HepG2 is “active”. Besides, the growth inhibition call in the experiment on S. aureus RN4220 is “inactive”.

Regarding `COc1ccc(CN(C)C[C@H]2Oc3ccc(NS(=O)(=O)c4cn(C)cn4)cc3CC(=O)N([C@H](C)CO)C[C@@H]2C)cc1`, the cytotoxicity call in the experiment with HSkMC and in the experiment with HepG2 was “inactive” in each case. The growth inhibition call with S. aureus RN4220 is “inactive”.

As to `Cc1c(N)cncc1C(=O)O`, the cytotoxicity call with HSkMC and in the experiment with HepG2 was “inactive” each time. The growth inhibition call in the experiment on S. aureus RN4220 was “inactive”.

With `C[C@@H]1CN([C@@H](C)CO)C(=O)Cc2cc(NC(=O)Nc3cccc4ccccc34)ccc2O[C@H]1CN(C)Cc1ccc(C(=O)O)cc1`, the cytotoxicity call with HSkMC and with HepG2 was “inactive” each time. For the same compound, in the experiment with S. aureus RN4220, the growth inhibition call was “inactive”.

Consider `CC(C)NC(=O)N(C)C[C@H]1Oc2ccc(NC(=O)NC3CCCCC3)cc2C(=O)N([C@H](C)CO)C[C@H]1C`, for which the cytotoxicity call in the experiment on HSkMC and in the experiment on HepG2 was “inactive” throughout. The growth inhibition call in the experiment with S. aureus RN4220 was “inactive”.

For `CC(C)NC(=O)Nc1ccc2c(c1)C(=O)N([C@H](C)CO)C[C@H](C)[C@@H](CN(C)Cc1ccc(Cl)c(Cl)c1)OCCCC[C@@H](C)O2`, the cytotoxicity call in the experiment with HSkMC and in the experiment with HepG2 was “inactive” each time. Further, in the experiment on S. aureus RN4220, the growth inhibition call was “inactive”.

Turning to `C[C@H]1CN([C@@H](C)CO)S(=O)(=O)c2ccc(-c3cncnc3)cc2O[C@@H]1CN(C)C(=O)Cc1ccccc1`, the cytotoxicity call with HSkMC and in the experiment on HepG2 was “inactive” throughout. In addition, in the experiment with S. aureus RN4220, the growth inhibition call was “inactive”.

In the case of `C[C@@H]1CCCCO[C@H](CN(C)C)[C@@H](C)CN([C@H](C)CO)C(=O)c2cc(NS(=O)(=O)c3cn(C)cn3)ccc2O1`, the cytotoxicity call in the experiment on HSkMC (human skeletal muscle cells) and in the experiment on HepG2 was “inactive” throughout. The growth inhibition call with S. aureus RN4220 was “inactive”.

Consider `CC(C)(C)[S@](=O)N1Cc2cc(C(=O)N3CCc4ccccc4C3)nc(-c3cccc(-c4cncnc4)c3)c2[C@@H]1CCO`, for which the cytotoxicity call with HSkMC and with HepG2 was “inactive” each time. Moreover, in the experiment on S. aureus RN4220, the growth inhibition call is “inactive”.
